Here are results for 22 molecules from article PMC12136788.

B1: chr7:18026828:18027782:-|CDS|ENSG00000229937|control|control|control (ssRNA)
RNA: GGGAGUUCUACAGUCCGACGAUCUGGAAUCUUUUCUGGCCCAGCCAUUUCUCGCAUCAACACUGCAUGCUUUGAAGCAGUGGUAGUCACCAAUACCAUACCUCAAGAUGAGAAGAUGAAGCAUUGCUCCAAAAUACGAGUAAUCAACAGAGGAUUGAGCAUCA
B2: chr12:130875966:130876013:+|3pUTR|ENSG00000132341|msi1_unk|FALSE|overlapping (ssRNA)
RNA: GGGAGUUCUACAGUCCGACGAUCGAUGAGGAUGAUGACCUGUGAGAAUGAAGCUGGAGCCCAGCGUCAGAAGUCUAGUUUUAUAGGCAGCUGUCCUGUGAUGUCAGCGGUGCAGCGUGUGUGCCACCUCAUUAUUAUCUAGCUCAACAGAGGAUUGAGCAUCA
B3: chr12:6655637:6655878:-|three_prime_utr|ENSG00000111653|control|control|control (ssRNA)
RNA: GGGAGUUCUACAGUCCGACGAUCUCACUUGGUUUCUUCAAAGAUGUCUGUUGGAGCUAUUCCCAUACCCACUGAAGGAUCUGUAGUCUUGUCUUCAUUCUAUGUAGCCAUGUUCAAGGAUGUAACAGACUGGUUUUGAGAUACCAACAGAGGAUUGAGCAUCA
B4: chr18:21869459:21869560:+|3pUTR|ENSG00000101752|msi1|total|mutant (ssRNA)
RNA: GGGAGUUCUACAGUCCGACGAUCUAAAAGAUGGUCUUCCGUGCACGUGUAUCAUUAUAUACACGUUUUAAAGUCAUAUUGCUCCGCUUGUUAAUAAUGAUUCUGCAUGUGUGCUGGGUUUGGGUAAUUCUUUAAAGGAAGUUUCAACAGAGGAUUGAGCAUCA
B5: chr4:67617988:67618115:-|3pUTR|ENSG00000033178|unk|FALSE|unique (ssRNA)
RNA: GGGAGUUCUACAGUCCGACGAUCAAAUGUAGAAUGUUAAAAAUUAUUGCUAGGGUAGUCUUUUUUUUUUCCAGAAACCUAAUUAGGGUAUUAAAUUUUGUGUUUUUUUUGUUUUUUUUUUUUAAACAGAAGCAUGUUAUUUCACAACAGAGGAUUGAGCAUCA
B6: ENSG00000198589:be:win_8401|CDS|ENSG00000198589|bound_else_gene|NA|bound_elsewhere_windowed (ssRNA)
RNA: GGGAGUUCUACAGUCCGACGAUCAAGCAGCUCUUUGCCUAUCCAGGAUGUGACGCUGGAAUCCGGGCCAUGGCGCUGUCUUACGACCAGAGGUGCAUCAUUUCUGGCAUGGCUUCAGGAAGCAUUGUGCUAUUUUACAACGACCAACAGAGGAUUGAGCAUCA
B7: chr5:138934237:138934351:+|3pUTR|ENSG00000044115|msi1_unk|FALSE|overlapping (ssRNA)
RNA: GGGAGUUCUACAGUCCGACGAUCUUUCCAAGAACAUAGUUUAAGUUGAUUAAAAAUGCUUUUAGAAUGCAGGAGCCUACUUCUAGCUGUAUUUUUUGUAUGCUUAAAUAAAAAUAAAAAUUCAUAACCAAAGAGAAUCCCACACAACAGAGGAUUGAGCAUCA
B8: chr2:30159184:30159288:+|3pUTR|ENSG00000119801|unk|FALSE|bound_elsewhere (ssRNA)
RNA: GGGAGUUCUACAGUCCGACGAUCAAAAUCUGGGCUGUUAGAGUGAAAAAGUGUGUUUUAUGUCAAUUGUGAAAGGAAAAUGUUAGGAGUAUGGUUUUUAAACUUGGGCUUCAUUUUAAACUUUUUUUUUUAAACCCAGUUAUUCAACAGAGGAUUGAGCAUCA
B9: ENSG00000198589:be:win_8051|CDS|ENSG00000198589|bound_else_gene|NA|bound_elsewhere_windowed (ssRNA)
RNA: GGGAGUUCUACAGUCCGACGAUCGCCAUGACUAUGAGGUCACAUGUGCUGCGGUGUGUGCGGAGCUAGGCCUGGUGUUGAGUGGUUCACAAGAAGGACCAUGUCUCAUACAUUCCAUGAAUGGAGACUUGUUGAGGACCUUGGCAACAGAGGAUUGAGCAUCA
B10: chr2:182778012:182778113:+|3pUTR|ENSG00000077232|msi1|total|mutant (ssRNA)
RNA: GGGAGUUCUACAGUCCGACGAUCUAAAGAUAUAUGUGUUCAUGUAUUUUCUGAAAUUGCUUUCACCGAAAUUUUCCCACUGACCGUUGAUUUUUGAGGCAUCUAAUAUUUACAUAUUUGCCUUCUGAACUUUGUUUUGACCUGCAACAGAGGAUUGAGCAUCA
B11: chr12:79773885:79773986:-|3pUTR|ENSG00000058272|msi1|FALSE|unique (ssRNA)
RNA: GGGAGUUCUACAGUCCGACGAUCGGUUAUUUAUUCUUUGUAUCUAAAACUGAACAGCUACUGUGCUAUAUUGAUUUUAUUGGUAGUAUUGAGCAGACCUUGUUUCUGCAUGAAACUAGUUGCAAAACCCACUAUUUUGGAAAUCAACAGAGGAUUGAGCAUCA
B12: chr5:97028609:97028710:+|3pUTR|ENSG00000113441|msi1|total|mutant (ssRNA)
RNA: GGGAGUUCUACAGUCCGACGAUCUUGCAAAAGCCAAGGUAAAGCCAGGAUCGCUGCCAAGUUGUUUGCACUCUUUGGAGUUCCCGUCCGCUCAGGGCCUGACUGUAUUUUUCAUCCAUCUUUUCUGAAGUGUCUUUGGGCAGUCAACAGAGGAUUGAGCAUCA
B13: chr4:70820284:70820384:-|3pUTR|ENSG00000132463|msi1_unk|FALSE|overlapping (ssRNA)
RNA: GGGAGUUCUACAGUCCGACGAUCUGAACUGGUAUGGUUUGGCAGAAUAGUUUUAAAUUUUGCUGUAUUUGAUUACUUAGAGAUAGGAAUUUUUAAAAAUCAAAACAAAAAAUACCACAGCUUAGUGUAAAUGACAAUUUGGCGCAACAGAGGAUUGAGCAUCA
B14: chr3:66417149:66417250:-|CDS|ENSG00000144749|msi1|total|mutant (ssRNA)
RNA: GGGAGUUCUACAGUCCGACGAUCCAACAAGAUUCGCAGCGUGGAGGGGAGCCAGCUGAAGGCCUACCUUUCCUCCGAAGUGUCCGAUCUGAGUUUGAACAACAUCACGGAAGUGCGGAACACCUGCUUUCCACACGGACCGCCCAACAGAGGAUUGAGCAUCA
B15: chr4:123402332:123402450:+|CDS|ENSG00000164056|unk|FALSE|unique (ssRNA)
RNA: GGGAGUUCUACAGUCCGACGAUCGACGAAGGGGAUUCCUAUUCAGAUAAUCCUUGCUCCUGUUCACAAUCACACUGCUGCUCUAGAUACCUGUGUAUGGGAGCCAUGUCUUUAUUUUUACCUUGCUUACUCUGUUAUCCUCCUCAACAGAGGAUUGAGCAUCA
B16: chr20:25296659:25296760:+|3pUTR|ENSG00000100994|msi1|total|mutant (ssRNA)
RNA: GGGAGUUCUACAGUCCGACGAUCUGGGGGUCAGGGUGGUUUUGAGAGAGCAGGGUAAGGAAGGAAUGUGCCCGAAGUGCUCCCCGUUUCUUGUAAAGGAAGCCAGAGUUGACAGUACAAAGGGUCGUGGCCAGCCCUGCAGCUCAACAGAGGAUUGAGCAUCA
B17: chr1:17068045:17068226:-|3pUTR|ENSG00000117115|msi1|total|mutant (ssRNA)
RNA: GGGAGUUCUACAGUCCGACGAUCCUCCUUCCACUGCCUUGACUUUCUUCCUUUUUAUUCCUGGUGCCAUCUGUCCAGGCAGCCCGACAAGAACUUGUUCGCCAGCAGCCAGAUUCAGGCCUUCCCAGGGGCAUAAUAAGUGACCAACAGAGGAUUGAGCAUCA
B18: chr7:149003559:149003660:-|3pUTR|ENSG00000155660|msi1|total|mutant (ssRNA)
RNA: GGGAGUUCUACAGUCCGACGAUCUUUUAUACUUUGGUGUUUCACUUCAUGCUCUGAAUACUGAAUAACCAUGAAUGACUGAACCGUUCCGUCCAGAUUUUUACAGAGGAUACAUCUAUUUUUAUCAUUAUUUGGGGUUUGAAACAACAGAGGAUUGAGCAUCA
B19: chr12:2800410:2800520:+|CDS|ENSG00000004478|unk|FALSE|unique (ssRNA)
RNA: GGGAGUUCUACAGUCCGACGAUCAAAUACAAGCAAGCUUUACUACAGUAUAAGAAGAUCGUGUCUUGGCUGGAAUAUGAGUCUAGUUUUUCCAAUGAGGAAGCACAGAAAGCACAGGCCCUUCGACUGGCCUCUCACCUCAACCAACAGAGGAUUGAGCAUCA
B20: ENSG00000124766:be:win_301|CDS|ENSG00000124766|bound_else_gene|NA|bound_elsewhere_windowed (ssRNA)
RNA: GGGAGUUCUACAGUCCGACGAUCAAAGACAGCGACAAGAUCCCUUUCAUUCGAGAGGCGGAGCGGCUGCGCCUCAAGCACAUGGCUGACUACCCCGACUACAAGUACCGGCCCAGGAAGAAGGUGAAGUCCGGCAACGCCAACCAACAGAGGAUUGAGCAUCA
B21: chr15:38488102:38490688:-|three_prime_utr|ENSG00000172575|control|control|control (ssRNA)
RNA: GGGAGUUCUACAGUCCGACGAUCUACUCUGAAAGCAGAUAAUGAUGCCCUAAAGAUCCAACUGAAAUAUGCACAGAAGAAAAUAGAAUCCCUCCAGCUUGAAAAAAGCAAUCAUGUCUUAGCUCAAAUGGAGCAGGGUGACUGCAACAGAGGAUUGAGCAUCA
B22: chr3:186789481:186789582:+|3pUTR|ENSG00000156976|msi1_unk|FALSE|overlapping (ssRNA)
RNA: GGGAGUUCUACAGUCCGACGAUCUUGGGGUGGGUAUAAAAGAUGGGGUCUGUAAAAUCUUUCUUUCUUAGAAAUUUAUUUCCUAGUUCUGUAGAAAUGGUUGUAUUAGAUGUUCUCUAUCAUUUAAUAAUAUACUUGUGGACUCAACAGAGGAUUGAGCAUCA

Some of the results follow.

The test addresses MSI1 full-length (mouse, UniProt Q61474 1-362). The test is described as follows: nsRBNS (natural sequence RNA bind-n-seq); RBNS binding buffer (assumed for nsRBNS): 25 mM Tris pH 7.5, 150 mM KCl, 3 mM MgCl2, 0.01% Triton X-100, 500 ug/ml BSA, 20 U/ml SUPERase-In, 4 C; UNK is unkempt and MSI1 is Musashi-1; names of the RNAs are library labels; protein concentration not given here; high values mean tight binding.
UniProt Q61474, sequence (Q61474 whole entry): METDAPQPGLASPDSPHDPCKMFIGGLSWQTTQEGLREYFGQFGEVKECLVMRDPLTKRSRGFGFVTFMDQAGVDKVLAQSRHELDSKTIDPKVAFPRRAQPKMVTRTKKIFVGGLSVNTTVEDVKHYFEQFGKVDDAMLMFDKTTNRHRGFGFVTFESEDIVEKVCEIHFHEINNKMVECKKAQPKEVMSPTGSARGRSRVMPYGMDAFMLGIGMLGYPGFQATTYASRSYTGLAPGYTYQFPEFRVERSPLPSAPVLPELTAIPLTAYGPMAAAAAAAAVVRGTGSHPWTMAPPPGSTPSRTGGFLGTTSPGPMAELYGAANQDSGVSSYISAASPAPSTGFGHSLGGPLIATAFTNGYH
Regarding B1, the binding signal is 0.367 enrichment R.
For B2 the value was 0.631 enrichment R; for B3, 0.297 enrichment R; for B4, 0.32 enrichment R.
For B5 the value was 6.09 enrichment R; for B6, 0.324 enrichment R; for B7, 1.48 enrichment R.
As for B8, the figure is 0.967 enrichment R; as for B9, 0.416 enrichment R.
B10 had a binding signal of 0.366 enrichment R.
In turn, B11 returned a binding signal of 1.35 enrichment R.
As for B12, the binding signal was 0.321 enrichment R.
For B13 the value was 4.91 enrichment R; for B14, 0.36 enrichment R.
The molecule B15 had a binding signal of 0.647 enrichment R.
For B16 the value was 0.673 enrichment R; for B17, 0.467 enrichment R; for B18, 0.545 enrichment R.
Turning to B19, the binding signal came to 0.781 enrichment R.
As for B20, the figure is 0.471 enrichment R.
For B21 the value was 0.706 enrichment R; for B22, 3.31 enrichment R.
